Source: PubChem BioAssay AID624170 (National Center for Advancing Translational Sciences (NCATS), 2012)
About 850 (0.21%) of roughly 410,000 compounds were called active. Inconclusive results, whose numbers are uncertain, are shown with a selection of clear calls. Calls follow the shape of the dose curve; as a rule, active = well fitted inhibition curve with a large enough effect; inconclusive = small, poorly fitted or top-dose-only effect, or another doubt; inactive = no such curve, though single readings can be large or run the other way. Potencies of inconclusive entries are left out as doubtful fits.

Each molecule was assayed against Glutaminase kidney isoform, mitochondrial (Homo sapiens) (UniProt O94925) (assay: qHTS for Inhibitors of Glutaminase (GLS)). Settings: GLS enzymatic activity, qHTS titration; series mostly up to 45.5 µM; activity change, negative = inhibition: at the top concentration.
UniProt O94925, sequence (O94925 whole entry, looked up, canonical isoform): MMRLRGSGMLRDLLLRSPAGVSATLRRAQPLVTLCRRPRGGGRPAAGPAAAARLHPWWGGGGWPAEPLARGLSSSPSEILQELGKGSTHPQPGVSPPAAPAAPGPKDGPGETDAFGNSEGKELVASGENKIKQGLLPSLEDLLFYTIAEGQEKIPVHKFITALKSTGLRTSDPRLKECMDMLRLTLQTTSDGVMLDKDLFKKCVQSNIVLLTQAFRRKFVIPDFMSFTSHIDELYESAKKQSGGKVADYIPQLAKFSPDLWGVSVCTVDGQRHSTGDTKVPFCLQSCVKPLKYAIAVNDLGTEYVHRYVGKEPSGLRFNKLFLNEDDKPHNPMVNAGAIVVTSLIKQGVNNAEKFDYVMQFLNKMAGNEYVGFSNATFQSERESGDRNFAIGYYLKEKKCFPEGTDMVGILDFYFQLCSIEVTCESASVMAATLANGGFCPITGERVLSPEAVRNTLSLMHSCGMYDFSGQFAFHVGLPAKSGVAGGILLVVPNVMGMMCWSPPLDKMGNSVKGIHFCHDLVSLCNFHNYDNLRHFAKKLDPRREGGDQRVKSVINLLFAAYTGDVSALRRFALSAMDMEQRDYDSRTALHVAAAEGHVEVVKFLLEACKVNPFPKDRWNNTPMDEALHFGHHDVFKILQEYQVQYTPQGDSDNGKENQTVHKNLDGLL
Procedure, shortened: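 Human kidney-isoform GLS in 45 mM KH2PO4 pH 8.2, 0.02% Tween-20, with compound, started with 1mM L-Glutamine (added stock). Glutamate oxidase/HRP/Amplex red coupled fluorescence read at start and after 30 min at RT.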
% is scaled to controls: 0 for no effect and ±100 for the full control effect; potency is read from the fitted curve at half-maximal effect; tags tell the direction and shape of the fitted curve.

Row | Structure (SMILES) | activity change, negative = inhibition | Potency
1 | CN1CCN(NC(=O)COc2cccc(C(F)(F)F)c2)CC1 | inactive: 5.77% | 
2 | Oc1ccc(Br)cc1/C=N/N1CCCCC1 | inactive: 16% | 
3 | CCCC(=O)Nc1nc(C)c(-c2csc(Nc3ccc(Cl)cc3)n2)s1 | inactive: 6.5% | 
4 | O=C(O)[C@@H](S)[C@H](S)C(=O)O |  | inconclusive [inhibitor, single point]
5 | CCOc1ccccc1N1CCN(C(=O)CNC(=O)c2sc3ccccc3c2Cl)CC1 |  | inconclusive [inhibitor, partial curve, poor fit]
6 | CCCCNC(=O)N(O)C1N(/N=C/c2ccccc2F)C(=S)SC1(C)C (stereo not given) |  | inconclusive [inhibitor, partial curve]
7 | COC(=O)c1c(NC(=O)COC(=O)c2ccc(NC(=O)CC#N)cc2)sc2c1CCCCC2 | inactive: 6.2% | 
8 | Cc1ccc(C(=O)NCCNC(=O)c2ccc(C)nc2)cc1 |  | inconclusive [inhibitor, single point]
9 | Nc1cc(S(=O)(=O)Nc2cc(Cl)ccc2Cl)ccc1N1CCOCC1 |  | inconclusive [inhibitor, single point]
10 | CCOc1ccc(N(C(=O)Cn2nnc3ccccc32)C(C(=O)NCc2ccccc2)c2ccc(OC)cc2)cc1 (stereo not given) | inactive: 5.59% | 
11 | O=c1ccc2[n+]([O-])c3ccc(O)cc3oc-2c1 |  | inconclusive [inhibitor, single point]
12 | Clc1cccc(Cc2c(-c3ccco3)nc3ccc(Cl)cn23)c1 |  | inconclusive [inhibitor, single point]
13 | COc1ccc(NC(C)C(=O)N/N=C/c2c(O)ccc3ccccc23)cc1 (stereo not given) |  | inconclusive [inhibitor, partial curve, poor fit]
14 | CSCCC(NC(=O)C1CCCC1)c1nnc2ccccn12 (stereo not given) | inactive: 3% | 
15 | COc1ccc(-n2cc(-c3ccccc3)c3c(NN4CCOCC4)ncnc32)cc1 |  | inconclusive [inhibitor, partial curve]
16 | C/C(=N\Nc1ccc(C(=O)O)cc1)c1ccc2c(c1)Nc1ccccc1S2 |  | active: 17.8 µM
17 | Cc1cccn2c(=O)c(C(=O)NCCCN3CCCCC3C)c(O)nc12 (stereo not given) |  | inactive
18 | Cc1ccccc1NC(=O)c1nn(C)c(C(=O)Nc2ccccc2C)c1[N+](=O)[O-] | inactive: 1.76% | 
19 | CN1CCN(NC(=O)CN2C(=O)S/C(=C\c3c(Cl)cccc3Cl)C2=O)CC1 |  | inconclusive [inhibitor, single point]
20 | Cc1ccnc2nc(C(=O)Nc3nc4ccccc4s3)nn12 | inactive: 1.77% | 
21 | CC(C)(C)NC(=O)c1cccc2c1C(=O)c1ccccc1-2 |  | inconclusive [inhibitor, single point]
22 | Cc1cc(=O)[nH]c(SCC(=O)Nc2ccc(Cl)cn2)n1 |  | inconclusive [inhibitor, single point]
23 | Cn1c(CNC(=O)c2ccc(Cl)cc2)nnc1SCC(=O)N1CCOCC1 |  | inconclusive [inhibitor, single point]

Row | Structure (SMILES) | activity change, negative = inhibition | Potency
24 | Cc1ccc(CNC(=O)COC(=O)c2cccc(S(=O)(=O)N3CCCCC3)c2)cc1 | inactive: -3.99% | 
25 | COc1cccc(/C=N/n2c(-c3cc(C)[nH]n3)n[nH]c2=S)c1 |  | inconclusive [inhibitor, partial curve, poor fit]
26 | N#CC1=C(N)Oc2c(sc3ccccc23)C1c1ccco1 (stereo not given) |  | inconclusive [inhibitor, partial curve, poor fit]
27 | COc1ccc(-c2cc3nccc(-c4cc(Cl)c(C)cc4O)n3n2)cc1 |  | inconclusive [inhibitor, single point]
28 | CCOc1ccc(/C=N/Nc2cc(=O)n(C)c(=O)n2C)cc1 |  | inconclusive [inhibitor, partial curve]
29 | CC1(N2CCOCC2)C(=O)c2ccccc2C1=O |  | inconclusive [inhibitor, partial curve]
30 | Cc1ccnc(N2C(=O)c3ccccc3C2O)c1 (stereo not given) | inactive: -1.07% | 
31 | CCOc1ccc(C2C(=O)N(C3CCCCC3)CC(=O)N2CCC2=CCCCC2)cc1OC (stereo not given) |  | inconclusive [inhibitor, partial curve, poor fit]
32 | COc1ccc(CCNC(=O)CSc2nnc(Cc3cccn3C)n2C)cc1OC |  | inconclusive [inhibitor, partial curve, poor fit]
33 | O=C(C1CC1)N(Cc1nc2ccccc2c(=O)[nH]1)Cc1cccs1 |  | inconclusive [inhibitor, single point]
34 | COc1ccc(C(CC(=O)N2CCCC2)c2c(OC)cc(OC)c3c(-c4ccccc4)cc(=O)oc23)cc1 (stereo not given) |  | inconclusive [inhibitor, partial curve]
35 | CC(=O)N(c1ccc(C)cc1)S(=O)(=O)c1ccc(Cl)cc1 | inactive: -4.96% | 
36 | COc1ccccc1-c1nnc2sc(-c3cnccn3)nn12 |  | inconclusive [inhibitor, single point]
37 | CC(=O)c1sc2nc(-c3ccco3)ccc2c1N |  | inconclusive [inhibitor, partial curve, poor fit]
38 | S=c1[nH]nc(-c2ccccc2)n1/N=C/c1ccc(Cl)cc1 |  | active: 15.8 µM
39 | COc1ccc(OC)c(/C=C/C(=O)c2ccc(Cl)cc2)c1 | inactive: -12.6% | 
40 | COc1ccc(-n2c(-c3cccc(C)c3[N+](=O)[O-])n[nH]c2=S)cc1 |  | inconclusive [inhibitor, partial curve, poor fit]
41 | CC/C(=N\NC(=S)Nc1ccc(OC)cc1)c1ccc(OC(F)F)cc1 |  | inconclusive [inhibitor, single point]
42 | O=C(CSC1=Nc2ccccc2C2CC=NN12)Nc1ccc(F)c(F)c1F (stereo not given) |  | inconclusive [inhibitor, single point]
43 | S=c1[nH]nc(-c2ccc(Br)cc2)n1-c1ccc(Br)cc1 |  | inconclusive [inhibitor, single point]
44 | COc1ccc(OC)c(Nc2nc(NCc3ccco3)nc(N)c2[N+](=O)[O-])c1 |  | inconclusive [inhibitor, partial curve, poor fit]
45 | COc1cccc(-c2nn3c(-c4ccccn4)nnc3s2)c1 | inactive: -7.54% | 
